Among all 150,000 compounds or so, about 540 (0.36%) showed an effect of 50% or more. Some of the results follow.

In the assay the test system is Plasmodium falciparum. The assay can be described thus: Primary screen in NF54 nanoGlo assay, in single point, at 2uM, 72h; a lower Z score goes with more inhibition. The format is functional, Erythrocyte. The settings on record: timepoint 72 hour.
`CCCC[C@H](C)C(=O)Nc1ncc(C#N)s1`: the “% Inhibition” value was -9% and the Z score is reported as 1.36.
For the compound `OC[C@@]1(CCOc2ccccc2)CCCN(c2ncnc3[nH]cnc23)C1`, the “% Inhibition” value was -4% and the Z score is given as 0.76.
In the case of `Cc1c(C(=O)NCC(=O)N2CCCC2)[nH]c2c(F)cccc12`, the “% Inhibition” value was -16% and the Z score was 2.03.
Turning to `CC[C@H]1C(=O)NCCCN1Cc1cc(O)ccc1Cl`, the “% Inhibition” value was -5% and the Z score amounted to 0.76.
Turning to `Cc1n[nH]c(C)c1NC(=O)Nc1cccc(N(C)C(C)C)c1`, the “% Inhibition” value is -3% and the Z score came out at 0.47.
Turning to `COc1cccc([C@@H](NCc2c3c(nn2C)CCCC3)C2CC2)c1`, the “% Inhibition” value turned out to be 0% and the Z score worked out at 0.02.
For `Cc1c[nH]c(CN(C)C(=O)C[C@@H](c2cccc(O)c2)c2ccccc2Cl)n1` the same measures were -5% and 0.97.
As to `CN1c2cc(C(=O)NC3CCCCC3)ccc2C(=O)N2CCC[C@@H]21`, the “% Inhibition” value worked out at 6% and the Z score is -0.83.
For `Cn1c(-c2c(-c3ccccc3)ncn2CCOCCO)cc2ccccc21`, the “% Inhibition” value was -12% and the Z score is listed as 1.38.
Regarding `Cc1ccc(NC(=O)Cn2ccc3ccc(-c4nnc(C)o4)cc32)cc1`, the “% Inhibition” value is -3% and the Z score is 0.31.
In the case of `COc1cc(Cl)c(CN(C)Cc2noc(C3CC3)n2)c(OC)c1`, the “% Inhibition” value is listed as -11% and the Z score is recorded as 1.62.
`CCCCNCc1cccn1CCN1CCOCC1`: the “% Inhibition” value is -1% and the Z score amounted to 0.09.
`CC(C)C1(CNC(=O)c2ccc3nc(C(F)(F)F)cn3c2)CC1`: the “% Inhibition” value was -4% and the Z score is recorded as 0.65.
For `COc1ccc(CNC(=O)c2c[nH]c3ccc(F)cc3c2=O)cc1` the same measures were 0% and -0.05.
Turning to `Cc1nc(CCNc2ccnc(C(F)(F)F)n2)sc1C`, the “% Inhibition” value is -8% and the Z score is 1.06.
The like results for `O=C(CN1CCCCC1)N1CCO[C@@H](CCCc2ccccc2)C1` were, in that order, 2% and -0.35.
For `Cc1c(Cl)ccc2c(C(=O)NC[C@H]3CCCO3)cc(-c3cccs3)nc12` the same measures were -1% and 0.13.
`COc1cccc(-c2nnc(NC(=O)Cc3cccs3)o2)c1`: the “% Inhibition” value was -11% and the Z score is recorded as 1.41.
Take `CC(C)(C)OC(=O)N1CCC(C(=O)NCC2CCCC2)(C(=O)NCC2CCCC2)C1`: the “% Inhibition” value was -8% and the Z score was 0.8.
`CC(=O)N1CCc2cc(CNC(=O)NCc3ccccc3)ccc21`: the “% Inhibition” value is reported as -4% and the Z score was 0.69.
With `O=C(Nc1ccc2c(c1)OCO2)c1cc[nH]n1`, the “% Inhibition” value was found to be 10% and the Z score is -1.55.
For `CC1CN(C(=O)c2coc(C(N)=O)c2)C1` the same measures were -5% and 0.74.
For `O=C1OCCCN1c1ccc(-c2noc([C@@H]3CCCO3)n2)cc1` the same measures were 9% and -1.22.
With `CCc1nnc(CN(C)C[C@H]2CCN(CC)C2)o1`, the “% Inhibition” value amounted to 3% and the Z score is listed as -0.56.
For `CC(=O)c1ccc(OCc2ncnn2CC(C)C)c(Cl)c1` the same measures were -19% and 1.9.
As for `CCN1CCN(Cc2nc(-c3ccccc3)cs2)[C@H]2CS(=O)(=O)C[C@H]21`, the “% Inhibition” value is given as -12% and the Z score is given as 1.29.
As for `CN1CCN(c2nc3c(c(N4CCCC4)n2)CN(C(=O)c2ccc(C(F)(F)F)cc2)CC3)CC1`, the “% Inhibition” value was -11% and the Z score was 1.28.
Turning to `Cc1ncncc1C(=O)N1CCC[C@@]2(CCC(=O)N(CCc3ccccn3)C2)C1`, the “% Inhibition” value is on record as 2% and the Z score is reported as -0.21.
The like results for `O=C(CCNc1ccc(F)cn1)N1CCCCCC1` were, in that order, 27% and -3.92.
`Cc1oc(C)c(C(=O)Nc2nc(-c3ccc4c(c3)OCCO4)cs2)c1Cl`: the “% Inhibition” value was -4% and the Z score worked out at 0.79.
As to `COc1cccc(N2CCN(C(=O)c3cccc(F)c3)[C@@H](C)C2=O)c1`, the “% Inhibition” value is -26% and the Z score was 2.28.
For `COCc1nc(C(=O)OCC2CCC2)cs1`, the “% Inhibition” value was 0% and the Z score is -0.01.
`Nc1c(-c2ccccc2)nc2n1CCCC2`: the “% Inhibition” value was -3% and the Z score was found to be 0.44.
The like results for `Cc1ccc(OC2Cc3ccccc3C2N)nn1` (stereo unspecified) were, in that order, -5% and 0.69.
On to `C[C@@H](COCC(F)(F)F)NC(=O)NCc1ncnn1C`, for which the “% Inhibition” value is given as -9% and the Z score was found to be 1.01.
For `CCCC(=O)N1CCCC[C@H]1C(=O)N1CC(n2cc(-c3ccc(OCC)cc3)nn2)C1` the same measures were -6% and 1.12.
With `CC1CC(C)CN(C(=O)CC(C)(C)CC(=O)Nc2ccc(F)cc2)C1` (stereo unspecified), the “% Inhibition” value is reported as -7% and the Z score is 1.06.
For the compound `C[C@H](NC(=O)c1cnc2ccccc2n1)C(=O)N1CCS(=O)(=O)CC1`, the “% Inhibition” value is recorded as -17% and the Z score was found to be 1.8.
`CN1CCC(n2nccc2NC(=O)c2cc(-c3ccccc3)on2)CC1`: the “% Inhibition” value worked out at 3% and the Z score was -0.65.
In the case of `CNC(=O)CCN(C)S(=O)(=O)c1cc(F)ccc1NCCO`, the “% Inhibition” value is listed as -7% and the Z score is given as 0.88.
For `COc1ccc(OC)c(-c2nccn2-c2ccc3nc(C)[nH]c3c2)c1` the same measures were -5% and 0.58.
The like results for `Cc1cccc(CNS(=O)(=O)C2CON(C)C2c2ccc(OCc3ccccc3)cc2)c1` (stereo unspecified) were, in that order, -8% and 1.48.
Turning to `Cc1ccc(-c2ccccc2CN2CCN3C(=O)CNC(=O)[C@@H]3C2)o1`, the “% Inhibition” value is listed as -7% and the Z score stood at 1.3.
